Values joined by “and” are separate entries in the source; they are usually repeats but may differ in a detail not shown here. Equal values may be shown once. The whole screen tested about 350,000 compounds, of which about 9,900 (2.8%) were called active. The inconclusive results got no clear call from the source; some entries with a clear call stand among them for comparison. Calls follow the shape of the dose curve; as a rule, active = well fitted activation curve with a large enough effect; inconclusive = small, poorly fitted or top-dose-only effect; inactive = no such curve, though single readings can be large or run the other way. Potencies of inconclusive entries are doubtful fits and often do not repeat.
Assay: A quantitative high throughput screen for small molecules that induce DNA re-replication in MCF 10a normal breast cells. Also: nearly all actives have a fitted effect of over 50% in size.
Details: MCF 10A DNA re-replication, Hoechst nuclear intensity, 48 h; series mostly up to 46.1 µM
Potency is read from the fitted curve at half-maximal effect; tags tell the direction and shape of the fitted curve.

Q: With `O=C(O)/C=C/C(=O)NNC(=O)c1cc(-c2ccccc2)n[nH]1` as the compound, how does the Potency read?
A: Its Potency is inconclusive: 11.2 µM [activator, partial curve, poor fit].

Q: Which Potency does the source give for `O=C(CSc1nnc(-c2ccccc2)n1-c1ccccc1)c1cccs1` here?
A: The Potency was inconclusive: 18.4 µM [activator, partial curve].

Q: For `O=C(Cc1cccs1)NC(c1ccccc1)c1ccccc1`, which Potency is on record?
A: The Potency was “inactive”.

Q: Which Potency does the source give for `CN(C)S(=O)(=O)n1cc(/C=C(\NC(=O)c2ccccc2Cl)C(=O)NCCCn2ccnc2)c2ccccc21` here?
A: Its Potency is inconclusive: 25.9 µM [activator, partial curve, poor fit].

Q: For `CC(=O)c1cccc(CN2CCCC(N3CCN(c4ccccc4F)CC3)C2)c1` (stereo not drawn), which Potency is on record?
A: Its Potency is inconclusive: 20.6 µM [activator, partial curve, poor fit].

Q: Which Potency does the source give for `CCc1ccc(C2c3[nH]c4ccccc4c3CCN2C(=O)CN2CCN(CC)CC2)cc1` (stereo not drawn) here?
A: The Potency was inconclusive: 23.1 µM [activator, single point].

Q: Which Potency does the source give for `CC(=O)/C(N=Nc1ccc(SC(F)F)cc1)=C(\C)O` here?
A: Its Potency is inconclusive: 1.16 µM [activator, single point].

Q: Which Potency does the source give for `Cc1onc(-c2c(F)cccc2Cl)c1C(=O)NC(=S)NC1CCSC1=O` (stereo not drawn) here?
A: Its Potency is inconclusive: 25.9 µM [activator, single point].

Q: For `COc1cccc(/C=N/NC(=O)c2cnccn2)c1OC`, which Potency is on record?
A: The Potency was inconclusive: 6.51 µM [activator, single point].

Q: For `COc1cc2[nH]c(=S)n(CCN3CCOCC3)c(=O)c2cc1OC`, which Potency is on record?
A: The Potency was inconclusive: 18.4 µM [activator, single point].

Q: Which Potency does the source give for `C#CCOCCOCCOCCNc1nc(N2CCN(C(=O)C([C@@H](C)O)n3cc([C@@H](N)CCCCN)nn3)CC2)nc(N2CCN(C(=O)[C@H](CCCCN)n3cc([C@@H](N)[C@H](C)CC)nn3)CC2)n1` (stereo partly drawn) here?
A: The Potency was inconclusive: 11.6 µM [activator, single point].

Q: For `CC(CN(C)C)CN1c2ccccc2Sc2ccccc21` (stereo not drawn), which Potency is on record?
A: Its Potency is “inactive”.

Q: Which Potency does the source give for `Cc1nc(-c2cccnc2)sc1C(=O)N/N=C/c1ccccc1Cl` here?
A: The Potency was “inactive”.

Q: With `O=C(CCc1nc2ccccc2n1-c1ccccc1)NCCO` as the compound, how does the Potency read?
A: The Potency was “inactive”.

Q: For `CN1CCC(Oc2ccc(Sc3ccccc3)cc2)CC1`, which Potency is on record?
A: The Potency was “inactive”.

Q: With `CN(C)c1ccc(N=Nc2ccccc2C(=O)OCC(=O)N2CCCC2)cc1` as the compound, how does the Potency read?
A: The Potency was inconclusive: 16.4 µM [activator, partial curve, poor fit].

Q: For `Cc1cccc(NC(=O)c2cc(S(=O)(=O)N3CCc4ccccc43)cn2C)c1`, which Potency is on record?
A: Its Potency is inconclusive: 25.9 µM [activator, single point].

Q: Which Potency does the source give for `O=C(COc1ccc(S(=O)(=O)N2CCOCC2)cc1Cl)NCc1ccccn1` here?
A: Its Potency is inconclusive: 18.4 µM [activator, single point].

Q: Which Potency does the source give for `O=C(Nc1nc(-c2ccccc2)cs1)c1cccc([N+](=O)[O-])c1` here?
A: Its Potency is inconclusive: 2.59 µM [activator, partial curve].

Q: For `CCCn1c(SCc2nc3ccccc3s2)n[nH]c1=O`, which Potency is on record?
A: Its Potency is “inactive”.

Q: For `CCCCN(C(=O)Cn1ncc(Cl)c(Cl)c1=O)c1c(N)n(CC(C)C)c(=O)[nH]c1=O`, which Potency is on record?
A: The Potency was inconclusive: 29.1 µM [activator, single point].

Q: With `O=C(COC(=O)c1cccc(-n2cnnn2)c1)c1ccc(F)cc1` as the compound, how does the Potency read?
A: Its Potency is “inactive”.

Q: With `COC(=O)c1ccccc1NS(=O)(=O)c1ccc2c3c(cccc13)C(=O)N2` as the compound, how does the Potency read?
A: Its Potency is inconclusive: 23.1 µM [activator, single point].

Q: With `CCOc1ccccc1CNCCNC(=O)c1nonc1N` as the compound, how does the Potency read?
A: Its Potency is “inactive”.

Q: Which Potency does the source give for `O=C(CN1CCCCC1)Nc1nc(-c2ccccc2)cs1` here?
A: The Potency was inconclusive: 7.31 µM [activator, partial curve, poor fit].

Q: With `O=C(NCC(=O)N1CCCC(C(F)(F)F)C1)c1cccs1` (stereo not drawn) as the compound, how does the Potency read?
A: The Potency was inconclusive: 2.82 µM [activator, single point].

Q: For `Cc1nn2c(N)c(-c3ccccc3)cnc2c1-c1ccc(Cl)cc1`, which Potency is on record?
A: The Potency was “inactive”.

Q: With `Nc1ccc(N2CCOCC2)c(S(=O)(=O)Nc2cc(Cl)ccc2Cl)c1` as the compound, how does the Potency read?
A: Its Potency is inconclusive: 14.6 µM [activator, partial curve, poor fit].

Q: For `Cc1ccc(C2=C(O)C(=O)C(c3ccc(C)cc3)=C(O)C2=O)cc1`, which Potency is on record?
A: The Potency was inconclusive: 20.6 µM [activator, partial curve, poor fit].

Q: Which Potency does the source give for `Cc1ccc(NC(=O)c2ncn(CCCN3CCN(c4ccccn4)CC3)n2)cc1C` here?
A: Its Potency is inconclusive: 18.4 µM [activator, single point].

Q: With `O=C(COC(=O)c1ccc(Cl)c(S(=O)(=O)N2CCCC2)c1)NCc1ccccc1` as the compound, how does the Potency read?
A: The Potency was inconclusive: 20.6 µM [activator, single point].

Q: Which Potency does the source give for `CCOc1ccc(C(=O)OCC(=O)NC2CCCCCCC2)cc1` here?
A: Its Potency is “inactive”.

Q: Which Potency does the source give for `COc1cc2c(cc1OC)C(COc1ccc(F)cc1)N(C(=O)c1ccco1)CC2` (stereo not drawn) here?
A: Its Potency is inconclusive: 32.6 µM [activator, single point].

Q: Which Potency does the source give for `Cn1cccc1Cc1nnc(SCC(=O)Nc2nc3ccccc3s2)n1CCc1ccccc1` here?
A: The Potency was inconclusive: 16.4 µM [activator, single point].

Q: For `O=Cc1ccc(O)c2ncccc12`, which Potency is on record?
A: The Potency was active: 1.64 µM.

Q: With `COc1ccc2oc(C(=O)NCCc3ccccc3)c(C)c2c1` as the compound, how does the Potency read?
A: The Potency was inconclusive: 29.1 µM [activator, single point].

Q: Which Potency does the source give for `Cc1cccc(NC2SC(=O)N(CC(=O)O)C2=O)c1` (stereo not drawn) here?
A: The Potency was inconclusive: 6.51 µM [activator, partial curve, poor fit].

Q: With `CSc1ccccc1C(=O)N1CCN(c2cccc(Cl)c2)CC1` as the compound, how does the Potency read?
A: Its Potency is inconclusive: 23.1 µM [activator, single point].

Q: For `CC(C)CCCC(C)NC(C)C` (stereo not drawn), which Potency is on record?
A: Its Potency is “inactive”.

Q: For `C#C[C@]1(O)CC[C@H]2[C@@H]3CCC4=CC(=O)CC[C@@H]4[C@H]3CC[C@@]21CC`, which Potency is on record?
A: Its Potency is inconclusive: 1.16 µM [activator, single point] and inconclusive: 58 nM [activator, full curve, poor fit].

Q: For `CC(C)(C)NC(=O)CN1CCC(O)(c2ccc3c(c2)OCO3)CC1`, which Potency is on record?
A: The Potency was “inactive”.

Q: With `FC(F)(F)c1ccc(N/N=C/c2cccnc2)nc1` as the compound, how does the Potency read?
A: Its Potency is “inactive”.

Q: For `Cc1ccc2oc(-c3cccc(NC(=S)NC(=O)/C=C/c4ccco4)c3)nc2c1`, which Potency is on record?
A: The Potency was active: 9.2 µM.

Reference: PubChem BioAssay AID624296 (National Center for Advancing Translational Sciences (NCATS), 2012)
